{"source": "PubChem BioAssay AID504332", "about": "(National Center for Advancing Translational Sciences (NCATS), 2011)", "note": "The campaign covered roughly 350,000 compounds. About 31,000 (8.9%) were called active. The shares of active, inactive and inconclusive entries below differ from those in the screen. The call rests on the fitted dose curve; in most records, active means well fitted inhibition curve with a large enough effect; inconclusive means small, poorly fitted or top-dose-only effect; inactive means no such curve, though single readings can be large or run the other way. Potencies of inconclusive entries are doubtful fits and often do not repeat. On the % scale 0 is the no-effect control and ±100 the full control effect; potency means the concentration at half of the fitted maximal effect; tags describe the fitted curve by direction and shape.", "data": [{"molecular_target": "Histone-lysine N-methyltransferase EHMT2 (Homo sapiens) (UniProt Q96KQ7)", "sequence (Q96KQ7 whole entry, looked up)": "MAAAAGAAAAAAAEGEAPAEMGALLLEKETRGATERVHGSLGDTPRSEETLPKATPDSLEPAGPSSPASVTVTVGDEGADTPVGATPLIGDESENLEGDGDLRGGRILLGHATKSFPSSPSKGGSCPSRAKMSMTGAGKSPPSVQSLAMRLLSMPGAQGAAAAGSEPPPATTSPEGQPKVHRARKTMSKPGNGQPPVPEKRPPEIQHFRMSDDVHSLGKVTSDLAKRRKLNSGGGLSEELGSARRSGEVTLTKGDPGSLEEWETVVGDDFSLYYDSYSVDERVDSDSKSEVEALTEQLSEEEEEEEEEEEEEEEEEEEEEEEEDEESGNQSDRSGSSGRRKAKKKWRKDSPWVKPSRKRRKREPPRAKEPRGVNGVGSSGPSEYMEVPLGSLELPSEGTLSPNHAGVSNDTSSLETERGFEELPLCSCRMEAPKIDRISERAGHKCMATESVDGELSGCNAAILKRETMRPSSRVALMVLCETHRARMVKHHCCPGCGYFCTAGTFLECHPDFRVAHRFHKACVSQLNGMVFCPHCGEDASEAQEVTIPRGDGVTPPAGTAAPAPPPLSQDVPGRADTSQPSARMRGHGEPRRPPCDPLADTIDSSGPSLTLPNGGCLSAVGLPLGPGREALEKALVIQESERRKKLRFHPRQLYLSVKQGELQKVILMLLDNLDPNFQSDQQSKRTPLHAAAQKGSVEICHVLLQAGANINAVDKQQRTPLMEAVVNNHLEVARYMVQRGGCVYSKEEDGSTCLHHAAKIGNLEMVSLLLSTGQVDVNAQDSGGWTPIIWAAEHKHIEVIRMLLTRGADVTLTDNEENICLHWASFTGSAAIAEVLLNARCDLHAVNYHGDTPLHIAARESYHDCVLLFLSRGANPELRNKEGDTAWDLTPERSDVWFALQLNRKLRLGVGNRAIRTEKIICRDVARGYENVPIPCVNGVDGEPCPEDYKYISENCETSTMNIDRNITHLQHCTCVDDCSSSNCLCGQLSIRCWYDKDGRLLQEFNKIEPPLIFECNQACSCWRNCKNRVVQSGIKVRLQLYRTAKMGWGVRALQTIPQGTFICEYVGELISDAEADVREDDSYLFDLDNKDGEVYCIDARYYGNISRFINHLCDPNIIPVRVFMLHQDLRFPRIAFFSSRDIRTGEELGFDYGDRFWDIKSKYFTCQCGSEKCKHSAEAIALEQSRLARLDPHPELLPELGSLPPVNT", "experiment": "qHTS Assay for Inhibitors of Histone Lysine Methyltransferase G9a; further: nearly all actives have a fitted effect of over 75% in size", "details": "G9a H3K9 monomethylation, AlphaScreen, 2 h; activity, negative = inhibition: at 59 µM (top of the series) unless noted", "procedure,_shortened": "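G9a (20 nM) preincubated 15 min RT with compounds, then 500 nM biotinylated H3K9 peptide and 20 uM SAM added; 2 h RT reaction. Monomethyl-H3K9 product detected by AlphaScreen with anti-H3K9me1 antibody, streptavidin donor and anti-rabbit IgG acceptor beads.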", "values": [{"smiles": "COc1ccccc1NS(=O)(=O)c1ccc(NN=C2CCCCC2)c([N+](=O)[O-])c1", "Potency": "active: 25.1 µM"}, {"smiles": "Cc1c(-c2ccccc2)c(P(=O)(N2CCOCC2)N2CCOCC2)c2ccccn12", "Potency": "inconclusive: 39.8 µM [inhibitor, single point]"}, {"smiles": "CCOc1cc(/C=N/NC(=O)C(=O)NCCCOC(C)C)cc(Br)c1O", "Potency": "inconclusive: 20 µM [inhibitor, single point]"}, {"smiles": "O=C(O)c1[nH]c2ccccc2c1NS(=O)(=O)c1ccc(F)cc1", "Potency": "active: 70.8 µM"}, {"smiles": "CN(CC1CCCO1)S(=O)(=O)c1ccc(C(=O)Nc2ccc([N+](=O)[O-])cc2)cc1", "note": "(stereo not drawn)", "Potency": "inactive"}, {"smiles": "N#CCCN(C(=O)COC(=O)Cc1c[nH]c2ccccc12)c1ccccc1", "activity, negative = inhibition": "inactive: 13.3% [at 0.501 µM]"}, {"smiles": "COC(=O)c1ccc(Cn2cnc3c(sc4nc(N5CCOCC5)c5c(c43)CCCC5)c2=O)o1", "Potency": "inconclusive: 2.82 µM [inhibitor, partial curve, poor fit]"}, {"smiles": "CC1CCCCC1NS(=O)(=O)c1ccc(S(=O)(=O)N2CCCC2)cc1", "note": "(stereo not drawn)", "Potency": "inconclusive: 89.1 µM [inhibitor, single point]"}, {"smiles": "CCOc1ccc(C2/C(=C(\\O)c3c(C)[nH]c(C(=O)OC)c3C)C(=O)C(=O)N2CCN(C)C)cc1", "note": "(stereo not drawn)", "Potency": "active: 44.7 µM"}, {"smiles": "Cc1cc(N2CCN(Cc3nc(-c4ccc(Cl)cc4)oc3C)CC2)cc(C)n1", "Potency": "inconclusive: 79.4 µM [inhibitor, single point]"}, {"smiles": "CC1Cn2c(nnc2-c2cc3ccccc3cc2O)S1", "note": "(stereo not drawn)", "activity, negative = inhibition": "inconclusive: -62% [inhibitor]"}, {"smiles": "CCCOc1ccc(/C(O)=C2/C(=O)C(=O)N(CCCn3ccnc3)C2c2ccc(C)o2)cc1", "note": "(stereo not drawn)", "Potency": "inconclusive: 50.1 µM [inhibitor, partial curve]"}, {"smiles": "CCn1cc(CCCC(=O)NCc2ccc(OC)cc2)c2ccccc21", "Potency": "inconclusive: 89.1 µM [inhibitor, single point]"}, {"smiles": "COc1ccc(C)cc1S(=O)(=O)N1CCN(Cc2ccccc2)CC1", "Potency": "inconclusive: 15.8 µM [inhibitor, partial curve, poor fit]"}, {"smiles": "O=S(=O)(Nc1ccc2oc3c(c2c1)CCCC3)c1cc(Cl)ccc1Cl", "Potency": "inconclusive: 28.2 µM [inhibitor, partial curve, poor fit]"}, {"smiles": "O=c1cc(CN2CCN(Cc3ccccc3)CC2)c2cc3c(cc2o1)CCC3", "activity, negative = inhibition": "inconclusive: -64.5% [inhibitor]"}, {"smiles": "O=C1CCCC2=C1C(c1ccc(Cl)cc1)C1C(=O)c3ccccc3C1=N2", "note": "(stereo not drawn)", "Potency": "inconclusive: 50.1 µM [inhibitor, partial curve, poor fit]"}, {"smiles": "O=C(CNC(=O)c1cc(Cl)cc([N+](=O)[O-])c1)OCC(=O)N1CCCCC1", "activity, negative = inhibition": "inactive: -2.85% [at 2.33 µM]"}, {"smiles": "O=C(COC(=O)c1cccnc1)Nc1ccc2c(c1)OCO2", "Potency": "inactive"}, {"smiles": "COc1ccc(N(C(=O)Cn2nnc3ccccc32)C(C(=O)NCc2ccco2)c2ccncc2)cc1", "note": "(stereo not drawn)", "Potency": "inconclusive: 79.4 µM [inhibitor, single point]"}, {"smiles": "COC(=O)c1c(NC(=O)CCCOc2ccc(C(C)(C)C)cc2)sc2c1CCC(C)C2", "note": "(stereo not drawn)", "Potency": "inactive"}, {"smiles": "CN(C)c1ccc(N2C(=O)CC(Nc3ccc(N4CCOCC4)cc3)C2=O)cc1", "note": "(stereo not drawn)", "Potency": "inconclusive: 25.1 µM [inhibitor, partial curve, poor fit]"}, {"smiles": "C1COCCNCCOCCOCCN1", "Potency": "inactive"}, {"smiles": "CCC(=O)c1ccc(OC(=O)c2cnccn2)cc1", "Potency": "inconclusive: 56.2 µM [inhibitor, partial curve, poor fit]"}, {"smiles": "COc1ccc(C(=O)n2cnnc2N)cc1", "Potency": "inconclusive: 39.8 µM [inhibitor, single point]"}, {"smiles": "O=C(COC(=O)Cc1cccs1)NCc1ccc(F)cc1", "Potency": "inconclusive: 89.1 µM [inhibitor, single point]"}, {"smiles": "CC[N+](C)(CC)CC(=O)OCC1C(C)C=C(C)CC1C", "note": "(stereo not drawn)", "Potency": "inconclusive: 39.8 µM [inhibitor, full curve, poor fit]"}, {"smiles": "COc1ccc(NC(=O)Cn2c(=O)sc3ccccc32)c(OC)c1", "Potency": "inconclusive: 89.1 µM [inhibitor, single point]"}, {"smiles": "CCN1CCN(C(c2ccccc2)c2nnnn2Cc2ccccc2)CC1", "note": "(stereo not drawn)", "Potency": "inconclusive: 31.6 µM [inhibitor, single point]"}, {"smiles": "COc1cccc2c1CCc1c-2nc2ccccc2c1C(=O)O", "Potency": "inconclusive: 89.1 µM [inhibitor, single point]"}, {"smiles": "COc1ccc(C2Sc3ccccc3NC3=C2C(=O)c2ccccc23)c(OC)c1OC", "note": "(stereo not drawn)", "Potency": "active: 11.2 µM"}, {"smiles": "Cc1cc(C)n(-c2ccc(C(=O)OCC(=O)c3ccc(Br)s3)cc2)n1", "Potency": "inconclusive: 28.2 µM [inhibitor, single point]"}, {"smiles": "Cc1ccc(S(=O)(=O)NCCc2cn3c(C)csc3n2)cc1", "Potency": "inactive"}, {"smiles": "CC1(c2ccccc2Cl)NC(=O)N(CC(=O)NC(=O)NCc2ccco2)C1=O", "note": "(stereo not drawn)", "Potency": "inconclusive: 56.2 µM [inhibitor, partial curve, poor fit]"}, {"smiles": "CC1=C(C(=O)OCc2ccc3c(c2)OCO3)C(c2ccccc2OCc2ccccc2)NC(=O)N1", "note": "(stereo not drawn)", "Potency": "inconclusive: 7.08 µM [inhibitor, partial curve, poor fit]"}, {"smiles": "COc1cc(OC)cc(-c2cc3nc(C)cc(N4CCN(C(=O)c5ccco5)CC4)n3n2)c1", "Potency": "inactive"}, {"smiles": "CCc1cc2c(=O)n(-c3ccc(C)cc3)cnc2s1", "Potency": "inactive"}, {"smiles": "CCC(C)C(NC(=O)c1ccccc1)C(=O)Nc1ccc(S(=O)(=O)Nc2cc(C)nc(C)n2)cc1", "note": "(stereo not drawn)", "Potency": "inconclusive: 3.55 µM [inhibitor, partial curve, poor fit]"}, {"smiles": "Cc1ccc(-c2nn3c(C)nnc3s2)cc1NC(=O)c1ccco1", "Potency": "inconclusive: 50.1 µM [inhibitor, partial curve]"}, {"smiles": "COc1ccc(CCNC(=O)CNCC(c2ccccc2)N(C)C)cc1OC", "note": "(stereo not drawn)", "Potency": "active: 8.91 µM"}, {"smiles": "COC(=O)Cc1cc(=O)[nH]c(/N=C(\\N)Nc2ccccc2)n1", "Potency": "inconclusive: 3.98 µM [inhibitor, full curve, poor fit]"}, {"smiles": "N#Cc1nc(COc2ccccc2F)oc1NCCc1ccccc1", "activity, negative = inhibition": "inconclusive: -80.9% [inhibitor]"}, {"smiles": "O=C(CN1CCN(C(=O)c2cccc(S(=O)(=O)N3CCCC3)c2)CC1)Nc1ccc(F)cc1", "Potency": "inconclusive: 7.08 µM [inhibitor, single point]"}, {"smiles": "Cc1noc(/C=C/c2ccco2)c1S(=O)(=O)N1CCC(C(=O)N2CCc3ccccc32)CC1", "Potency": "active: 44.7 µM"}, {"smiles": "Cc1ccc(N2C(=O)C(Cl)=C(N3CCN(C)CC3)C2=O)c(C)c1", "Potency": "inconclusive: 25.1 µM [inhibitor, single point]"}, {"smiles": "Cc1cc(NO)nc(-c2ccc(Br)cc2)n1", "Potency": "inconclusive: 35.5 µM [inhibitor, single point]"}, {"smiles": "Cc1cc(/C=N/NC(N)=S)c(O)c(/C=N/NC(N)=S)c1", "Potency": "inactive"}, {"smiles": "O=C(NCC1CCCCC1)c1cc(S(=O)(=O)N2CCCCC2)ccc1N1CCOCC1", "Potency": "inconclusive: 31.6 µM [inhibitor, partial curve, poor fit]"}, {"smiles": "COc1ccc(-n2c(C)cc(C(=O)COc3ccc(C)nc3[N+](=O)[O-])c2C)cc1", "Potency": "inconclusive: 39.8 µM [inhibitor, single point]"}, {"smiles": "C/C(=N/NC(=O)OC(C)(C)C)c1ccco1", "Potency": "inactive"}, {"smiles": "CC(N=C1CC(C)(C)CC(=O)/C1=C(/O)CCCN1C(=O)c2ccccc2C1=O)C(=O)O", "note": "(stereo not drawn)", "Potency": "inconclusive: 56.2 µM [inhibitor, partial curve, poor fit]"}, {"smiles": "O=C(O)c1ccc(N/N=C/C=C/c2ccc([N+](=O)[O-])o2)cc1", "Potency": "active: 31.6 µM"}, {"smiles": "COc1ccc(C)cc1Nc1n[n+](-c2ccccc2)c(-c2ccc(SC)cc2)s1", "Potency": "active: 44.7 µM"}, {"smiles": "CCOC(=O)c1cccc(Nc2c3c(nc4ccccc24)CCC3)c1", "Potency": "inactive"}, {"smiles": "Cc1cccc(NC(=O)c2c(NC(=O)C(F)(F)F)sc3c2CCCCC3)c1", "Potency": "inconclusive: 0.794 µM [inhibitor, full curve, poor fit]"}, {"smiles": "Cn1ccnc1SC(=O)N1c2ccccc2Sc2ccccc21", "Potency": "inconclusive: 1.78 µM [inhibitor, partial curve, poor fit]"}, {"smiles": "O=C(Nc1ccccc1Br)C1CCCN(S(=O)(=O)c2cccc3nsnc23)C1", "note": "(stereo not drawn)", "Potency": "inconclusive: 6.31 µM [inhibitor, single point]"}, {"smiles": "CC1=NN(c2ccc(Cl)c(C(=O)O)c2)C(=O)/C1=C/c1ccc(-c2ccccc2[N+](=O)[O-])o1", "Potency": "active: 31.6 µM"}, {"smiles": "COc1cccc(N2CCN(S(=O)(=O)c3ccc4[nH]c5c(c4c3)CCCC5)CC2)c1", "Potency": "inconclusive: 10 µM [inhibitor, partial curve]"}, {"smiles": "Cc1ccccc1OCC(O)CNCCOc1ccc(C(N)=O)cc1", "note": "(stereo not drawn)", "activity, negative = inhibition": "inactive: -37.8% [at 2.33 µM]"}, {"smiles": "CCCN(Cc1ccccc1)C(=S)NC(=O)c1ccccc1[N+](=O)[O-]", "Potency": "inconclusive: 44.7 µM [inhibitor, partial curve, poor fit]"}, {"smiles": "Cc1cc(C)nc(Nc2n[nH]c(COc3ccccc3)n2)n1", "Potency": "inactive"}, {"smiles": "O=C(c1ccco1)N1CCN(c2nc3ccsc3c(=O)s2)CC1", "Potency": "inconclusive: 22.4 µM [inhibitor, partial curve, poor fit]"}, {"smiles": "COc1ccc(OCCCCn2c(CO)nc3ccccc32)cc1", "Potency": "inconclusive: 70.8 µM [inhibitor, partial curve, poor fit]"}, {"smiles": "Cc1ccc(/C=C2\\CC(C)CC3=C2NC(=S)NC3c2ccc(C)cc2)cc1", "note": "(stereo not drawn)", "Potency": "inconclusive: 3.16 µM [inhibitor, single point]"}, {"smiles": "Cc1ccc2[nH]c(O)c(N=Nc3ccccc3C)c2c1", "Potency": "active: 8.91 µM"}, {"smiles": "Cc1ccnn1C(C)C(=O)O", "note": "(stereo not drawn)", "Potency": "active: 50.1 µM"}, {"smiles": "CCNC(=O)CCc1nc(-c2ccc(C)cc2)no1", "Potency": "inconclusive: 44.7 µM [inhibitor, single point]"}]}]}
